# According to PubChem BioAssay AID686979 (National Center for Advancing Translational Sciences (NCATS), 2013):
# In all, about 420,000 compounds went through this assay and about 50,000 (12%) were called active. The inconclusive results got no clear call from the source; some entries with a clear call stand among them for comparison. The call rests on the fitted dose curve; in most records, active means well fitted inhibition curve with a large enough effect; inconclusive means small, poorly fitted or top-dose-only effect; inactive means flat fitted curve, though single readings scatter. No potency is given beside an inconclusive call; the fits are too rough.
# Assay: qHTS for Inhibitors of human tyrosyl-DNA phosphodiesterase 1 (TDP1): qHTS in cells in presence of CPT; further: nearly all actives have a fitted effect of over 55% in size
# Conditions: chicken DT40 Tdp1-/-;hTDP1 cells + 20 nM CPT, ATP luminescence, 48 h; activity change, negative = growth inhibition: at 46.2 µM (top of the series) unless noted
# Summary of the method: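 Chicken DT40 Tdp1-/- cells stably complemented with human TDP1 were seeded at 400 cells/well in medium containing 20 nM camptothecin, exposed to pin-transferred compounds, and grown at 37 °C for at least 48 hr. Viability was read as ATP luminescence.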
# On the % scale 0 is the no-effect control and ±100 the full control effect; potency means the concentration at half of the fitted maximal effect; tags describe the fitted curve by direction and shape.
SMILES,Potency,"activity change, negative = growth inhibition"
Cc1sc2nc(CN3CCN(c4ccc(O)cc4)CC3)[nH]c(=O)c2c1C,"inconclusive [inhibitor, single point]",
Cc1ccc(C(=O)Nc2ccccc2C(=O)O)cc1S(=O)(=O)Nc1ccccc1,,inactive: -29.4%
O=C(CSCC(=O)N1CCN(c2ccccc2)CC1)Nc1nc(-c2ccc(Cl)s2)cs1,"inconclusive [inhibitor, single point]",
O=S(=O)(c1ccc2ncn(O)c2c1)N1CCOCC1,"inconclusive [inhibitor, partial curve, poor fit]",
COc1ccc(NC(=O)Cn2c(=O)n(Cc3ccco3)c(=O)c3cc(OC)c(OC)cc32)cc1,"inconclusive [inhibitor, single point]",
Cc1cccc(C(=O)OCN2C(=O)c3ccccc3C2=O)c1[N+](=O)[O-],,inactive: -1.18%
CN(C)c1ccc(-c2nc3cnccn3c2Nc2cccc(C(F)(F)F)c2)cc1,active: 25.9 µM,
COc1cccc(CNc2nccn(-c3cc(C)cc(C)c3)c2=O)c1,"inconclusive [inhibitor, single point]",
Cc1ccc(/C=C2/Sc3ccc(C(=O)NCc4ccccn4)cc3NC2=O)cc1,"inconclusive [inhibitor, single point]",
CCOC(=O)c1cc2sccc2n1CC(=O)N1CCCc2ccccc21,"inconclusive [inhibitor, partial curve]",
CN(C(=O)COC(=O)/C=C/c1ccc2ccccc2n1)c1c(N)n(Cc2ccccc2)c(=O)[nH]c1=O,"inconclusive [inhibitor, single point]",
CCOC(=O)/C=C1\SCC(=O)N1CC(=O)Nc1cc(S(=O)(=O)N(C)C)ccc1C,,inactive: -1.69%
Cc1cc(C)c(C(=O)N2CCCC(Nc3ccc(C)c(C)c3)C2)o1 (centres undefined),"inconclusive [inhibitor, single point]",
CCc1ccc(Nc2ncc3c(n2)CC(c2ccco2)CC3=O)cc1 (centres undefined),"inconclusive [inhibitor, single point]",
CC(C)C(NC(=O)c1ccc(C(C)(C)C)cc1)C(=O)NCC(c1ccccc1)N(C)C (centres undefined),"inconclusive [inhibitor, single point]",
CCN(Cc1ccccc1)C(=O)c1cc2c(OC)c(OC)c(OC)cc2[nH]1,"inconclusive [inhibitor, single point]",
Cc1ccc(NC(=O)CSC2=Nc3ccccc3C3=NC(Cc4ccccc4)C(=O)N23)cc1C (centres undefined),active: 9.2 µM,
Cc1ccccc1NC(=O)/C(C#N)=C\c1cn(CC(=O)O)c2ccccc12,,inactive: 2.88%
CC(=O)c1ccc(-c2nc3ccccc3n2C)o1,"inconclusive [inhibitor, single point]",
CCCCN(CCCNC(=O)c1ccc(Sc2ccc(Cl)cc2)c(NC(C)=O)c1)c1ccccc1,"inconclusive [inhibitor, single point]",
O=C(Nc1nc2ccc(F)cc2s1)c1cccs1,"inconclusive [inhibitor, single point]",
COc1ccc(N2CC(C(=O)Nc3nc4ccc(S(C)(=O)=O)cc4s3)CC2=O)cc1 (centres undefined),,inactive: 6.78%
CCSc1ncc(Cl)c(C(=O)Nc2ccc(S(=O)(=O)N3CCC(C)CC3)cc2)n1,active: 14.6 µM,

SMILES,Potency,"activity change, negative = growth inhibition"
C/C(=C\C(=O)c1ccncc1)Nc1ccccc1O,"inconclusive [inhibitor, single point]",
Cc1c(Cl)cccc1NC(=O)Cn1cc(C(=O)C2CCCCC2)c2ccccc21,"inconclusive [inhibitor, single point]",
COc1ccccc1-c1ccc2ncnc(NCc3ccccc3)c2c1,"inconclusive [inhibitor, single point]",
CC(C)C(=O)NNC(=O)c1c(O)c2ccccc2[nH]c1=O,"inconclusive [inhibitor, single point]",
C[C@@H]1CCCCO[C@@H](CN(C)S(=O)(=O)c2ccc(F)cc2)[C@@H](C)CN([C@H](C)CO)C(=O)c2cc(NC(=O)c3ccccc3)ccc2O1,"inconclusive [inhibitor, partial curve, poor fit]",
CCc1ccc(Nc2nnc(SCC(=O)NC(=O)c3cccn3C)s2)cc1,,inactive: -11.7%
COCCn1c(CCC(=O)Nc2ccc(C)c(Cl)c2)nc2cccnc21,"inconclusive [inhibitor, single point]",
COCC(C)NCC(=O)NC(C)CCc1ccccc1 (centres undefined),,inactive: -0.698%
CC(=O)c1cc(NC(=O)c2ccc(C)cc2)c(=O)oc1C,active: 23.1 µM,
CC(=O)n1c2ccccc2c2nc(NC(C)C)sc21,"inconclusive [inhibitor, single point]",
COC(=O)C1CCN(C(=O)c2ccc(Cl)c(S(=O)(=O)NCc3cccnc3)c2)CC1,,inactive: -5.32%
CC(C)(C)OC(=O)N1CCC(c2c(C(=O)NCc3ccccc3)cnn2-c2ccccc2)CC1,"inconclusive [inhibitor, single point]",
COCCCN(C(=O)CCSc1ccc(F)cc1)c1c(N)n(Cc2ccccc2)c(=O)[nH]c1=O,"inconclusive [inhibitor, single point]",
CCc1cc(C(=O)N/N=C/c2c(C)[nH]c3ccccc23)cs1,"inconclusive [inhibitor, single point]",
Cc1ccc(-c2nc(CN(CC3CCC3)CC3CCCO3)c(C)o2)s1 (centres undefined),"inconclusive [inhibitor, single point]",
CN(C)CCN(Cc1ccccc1)C(c1cc2ccccc2o1)c1nnnn1C(C)(C)C (centres undefined),active: 16.4 µM,
CC1CCC(NC(=O)c2ccc3c(c2)N(Cc2ccccc2)C(=O)c2ccccc2S3(=O)=O)CC1 (centres undefined),"inconclusive [inhibitor, single point]",
COCC(=O)N(Cc1cc2cc(OC)ccc2[nH]c1=O)c1ccc(C)cc1,"inconclusive [inhibitor, single point]",
CC1CCC(N(C)C(=O)CN2C(=O)NC(c3ccccc3)(c3ccccc3)C2=O)CC1 (centres undefined),active: 23.1 µM,
COc1cccc(C(=O)OCC(=O)NC(=O)NC2CCCC2)c1O,,inactive: 3.43%
CC(=O)NNC(=S)NC(=O)C(c1ccccc1)c1ccccc1,active: 8.2 µM,
O=C(NC(=O)c1ccccc1)Nc1ccc(-n2nc(C(F)(F)F)cc2C(F)(F)F)cc1,,inactive: 8.2%
CCc1nc2c(OCc3c(C)noc3C)cccn2c1N(C=O)Cc1ccc(OC)cc1,active: 23.1 µM,

SMILES,Potency,"activity change, negative = growth inhibition"
CCc1ccc(CNC(=O)c2cc3c(=O)n(CC)c4ccccc4c3s2)cc1,"inconclusive [inhibitor, single point]",
CN(c1ccccc1C(=O)N1CCN(Cc2ccc3c(c2)OCO3)CC1)S(C)(=O)=O,,inactive: 2.28%
CCN1N=C(c2ccccc2)Cn2c1nc1ccccc12,"inconclusive [inhibitor, single point]",
Cc1cccc(Nc2c(-c3cccs3)nc3nc(C)cc(C)n23)c1,active: 25.9 µM,
Cc1noc(C)c1COc1ccc(C(=O)NNC(=O)c2ccccc2)cc1,active: 5.17 µM,
COC(=O)CCCC1=CC2=C(c3ccccc3)C(=O)C(C)(OC(=O)C3CCCC3)C(=O)C2=CN1CCc1c[nH]c2ccccc12 (centres undefined),"inconclusive [inhibitor, single point]",
Cc1cc(C)cc(OCC(=O)Nc2nc(-c3cccnc3)cs2)c1,active: 14.6 µM,
Cc1ccc(NC2CCCN(C(=O)c3ccc4nccnc4c3)C2)cc1C (centres undefined),,inactive: 6.73%
CC(=O)c1cc(C#N)c(N2CC(C)OC(C)C2)nc1C (centres undefined),,inactive: 10.4%
CC1CN(C(=O)c2cccc(Oc3ccccc3)c2)CC(C)O1 (centres undefined),"inconclusive [inhibitor, partial curve, poor fit]",
COc1ccccc1CNc1nc(NCCNC(C)=O)c2sccc2n1,"inconclusive [inhibitor, single point]",
CCOc1ccccc1C(=O)NCCN1CCC(n2c(=O)[nH]c3ccccc32)CC1,active: 23.1 µM,
COc1ccc(NC(=O)CN(C)S(=O)(=O)c2ccc3c(c2)CCC(=O)N3)c(OC)c1,inactive,
O=C(Nc1ccccc1N1CCN(C(=O)c2ccccc2)CC1)c1cc(Br)ccc1Cl,active: 18.4 µM,
O=C(NCCN1CCOCC1)c1ccc(/C=C2\Sc3ccccc3N(Cc3ccccc3F)C2=O)cc1,"inconclusive [inhibitor, single point]",
COc1ccc(Nc2nc(NCC3CCCO3)c3ccccc3n2)c(OC)c1 (centres undefined),active: 16.4 µM,
COc1ccc(-c2csc(C(O)(c3ccccc3)C(F)(F)F)n2)cn1 (centres undefined),"inconclusive [inhibitor, single point]",
Cc1ccc(CNC(=O)c2cnc(N3CCCCC3)c3ccccc23)cc1,"inconclusive [inhibitor, single point]",
CCc1ccc(NC(=O)CSc2nc3c(sc4ccccc43)c(=O)n2CCCOC)cc1,"inconclusive [inhibitor, single point]",
COc1cccc(/C=N/n2c(COc3ccccc3)n[nH]c2=S)c1OC,,inactive: -6.57%
O=C(Nc1nnc(-c2ccc(F)cc2)o1)c1cccc([N+](=O)[O-])c1,active: 3.66 µM,
O=C(c1ccc2c(c1)CCN2S(=O)(=O)c1ccccc1)N1CCN(c2cccc(Cl)c2)CC1,"inconclusive [inhibitor, single point]",
COc1ccc(OC)c(-c2cc(Cl)c3c(c2)CC(CNC(=O)C(C)N2CCOCC2)O3)c1 (centres undefined),,inactive: -0.982% [at 9.04 µM]
